Source: the supplement of paper PMC3334620
Over roughly 33,000 sequences, “E-score (-0.5 to 0.5)” has its median near -0.035; the highest 2% begin near 0.35. The list shows a part of the results.

Molecular target: T1, Pdr3 (UniProt P33200)
T1 sequence: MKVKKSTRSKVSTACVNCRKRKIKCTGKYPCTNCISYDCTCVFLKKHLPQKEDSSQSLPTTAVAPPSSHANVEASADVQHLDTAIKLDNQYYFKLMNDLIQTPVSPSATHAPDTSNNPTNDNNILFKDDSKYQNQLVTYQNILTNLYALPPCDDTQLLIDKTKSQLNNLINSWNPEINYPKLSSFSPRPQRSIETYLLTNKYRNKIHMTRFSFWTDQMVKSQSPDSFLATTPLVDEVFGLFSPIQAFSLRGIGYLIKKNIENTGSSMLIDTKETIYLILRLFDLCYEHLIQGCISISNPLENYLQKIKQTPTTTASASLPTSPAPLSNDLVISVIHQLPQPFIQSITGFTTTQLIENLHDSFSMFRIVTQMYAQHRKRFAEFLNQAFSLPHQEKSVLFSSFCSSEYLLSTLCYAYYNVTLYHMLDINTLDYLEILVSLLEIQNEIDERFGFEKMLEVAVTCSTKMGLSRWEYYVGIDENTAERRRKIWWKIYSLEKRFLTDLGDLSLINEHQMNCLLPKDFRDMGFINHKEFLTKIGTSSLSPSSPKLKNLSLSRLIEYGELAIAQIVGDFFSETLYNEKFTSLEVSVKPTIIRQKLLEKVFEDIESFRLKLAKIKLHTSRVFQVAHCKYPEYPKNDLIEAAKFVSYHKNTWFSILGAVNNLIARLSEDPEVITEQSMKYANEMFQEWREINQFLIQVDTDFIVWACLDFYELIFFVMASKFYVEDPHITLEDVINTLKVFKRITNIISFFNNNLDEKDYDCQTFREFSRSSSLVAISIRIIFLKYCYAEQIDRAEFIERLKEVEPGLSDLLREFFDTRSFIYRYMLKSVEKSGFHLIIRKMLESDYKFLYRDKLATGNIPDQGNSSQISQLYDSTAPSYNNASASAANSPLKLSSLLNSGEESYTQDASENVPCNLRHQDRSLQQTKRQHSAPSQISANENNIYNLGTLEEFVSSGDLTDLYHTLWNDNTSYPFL
Assay: PBM E-score (8-mer binding enrichment) (E-score (-0.5 to 0.5)); higher = stronger / more preferred TF binding; most listed sequences are background and not binding sites
Details: protein concentration: 200 nM; construct: GST-full length
How it was run: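 The E-score, a modified Wilcoxon-Mann-Whitney statistic, was computed by the Universal PBM Analysis Suite for every ungapped eight-base word pooled with its reverse complement. Scans behind it were normalised with masliner after bound GST-tagged yeast transcription factors were detected with fluorescent anti-GST. The proteins, at about 100-200 nM, had been applied to universal all-10-mer Agilent arrays made double-stranded by primer extension.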

Row | Sequence | PBM E-score
1 | AATGAGAT | 0.056
2 | CCAAAGAC | 0.00235
3 | ATTAGGTA | -0.183
4 | GCGCCGCA | 0.151
5 | GCGCATAA | -0.0375
6 | ATCTTACC | 0.0425
7 | GCATAGGA | -0.168
8 | ATCTCCCA | -0.0664
9 | ACTAGGTG | -0.0965
10 | GAAGTGAA | 0.0811
11 | GTCCGCTA | 0.147
12 | AGCGCCCA | -0.204
13 | TGCCTAAA | -0.208
14 | CAACGCTG | -0.0681
15 | AGCGTTTA | -0.272
16 | ACGTCTTA | -0.186
17 | AGAATCTG | -0.048
18 | GCTAAAAA | -0.176
19 | CACGCATA | -0.268
20 | CAGAGTAC | -0.147
21 | CGCTGCCG | 0.136
22 | TAACTAAA | -0.234
23 | GACGGGCC | 0.111
24 | CCGCGGCC | 0.459
25 | ACTGCAAC | -0.226

Row | Sequence | PBM E-score
26 | GCCTAGCA | -0.258
27 | CATCTAAA | -0.0338
28 | AAATGCCT | -0.0833
29 | GACATGTA | 0.0371
30 | GGGGCAAA | 0.0161
31 | GCCGAAGA | 0.0594
32 | CCGGTCAG | 0.245
33 | ATCCGGTC | 0.215
34 | GTCCATAA | -0.139
35 | AATATCCT | -0.0215
36 | GACCGTGC | -0.0484
37 | GTGAGCGA | -0.0743
38 | AGGCTGAA | -0.193
39 | CCGTCTCC | 0.219
40 | CAGGAGCG | -0.12
41 | AAGGGTGA | -0.0622
42 | ACTCGTAT | -0.11
43 | AGAGACCC | -0.00919
44 | CACACTAA | -0.0221
45 | ATTTAGCG | -0.145
46 | ACCACAAC | 0.105
47 | ACTGCATA | -0.0203
48 | CCGCCCAG | 0.228
49 | GACTGCTA | -0.275
50 | CTGGGCTC | -0.231

Row | Sequence | PBM E-score
51 | ACTTAACT | -0.0121
52 | CAATGGAC | -0.0624
53 | CTCGGGCC | 0.208
54 | CCCAGACC | -0.147
55 | CGAGTCCA | -0.139
56 | GAGCGAAA | 0.146
57 | ATGTATCA | -0.0778
58 | GAGTAATC | 0.0896
59 | AAAATGTT | -0.218
60 | GTAAATCA | 0.144
61 | GCTGGACC | 0.00517
62 | AGAATCAG | 0.0524
63 | AGTGCTCC | 0.0777
64 | AACCGATT | 0.123
65 | CGAACCAC | 0.18
66 | AAGTACGA | 0.206
67 | GGGACGGA | 0.33
68 | CAGGCATA | -0.143
69 | GATAGCAC | -0.0942
70 | CGGAACAG | 0.466
71 | GAAGCCGC | 0.305
72 | TCCCACCA | -0.155
73 | GACTGCTC | 0.0261
74 | ACTCGTTA | -0.215
75 | AGACAACA | -0.14

Row | Sequence | PBM E-score
76 | TCTCTCAA | 0.116
77 | ACAAATAT | 0.139
78 | GGAGCGTA | 0.109
79 | AAACTAAC | -0.00559
80 | ATTAGTCC | 0.13
81 | AAGACACC | 0.0231
82 | GGCGGTAC | 0.0449
83 | GATGCGCA | 0.0246
84 | ATGTGTGG | -0.0324
85 | TCAGCGCA | 0.0623
86 | ACATATTA | -0.0563
87 | CTGGTAAG | -0.237
88 | AGGTTTGA | -0.142
89 | AAGAGGAA | -0.1
90 | ATGCAATA | -0.132
91 | GCAACAAC | -0.0658
92 | CGAAATAA | 0.18
93 | TCACTTCA | -0.0887
94 | AAAGCTTA | -0.224
95 | ACAACCAA | -0.0379
96 | GAGCATAC | -0.0232
97 | CGAATTCC | 0.277
98 | AGTCCCAC | -0.0928
99 | GATTCCCA | 0.0551
100 | AAGCGTTC | -0.0435

Row | Sequence | PBM E-score
101 | AGCATCCT | 0.156
102 | AGACATCT | -0.135
103 | GGTGTAGA | -0.0133
104 | AGCACCGG | 0.196
105 | AATAAAAT | -0.0737
106 | ATCTCCAC | -0.0688
107 | GCCTGGCA | -0.208
108 | CACGGACG | 0.324
109 | CGCTTGCC | 0.0536
110 | TTAGAGAA | -0.297
111 | AGTAAACC | -0.173
112 | CGACGTCA | 0.0524
113 | CAATTAAA | -0.0116
114 | AATTTCCT | 0.0149
115 | AGACTATA | 0.0891
116 | CAGGATCC | 0.0521
117 | AATAGTCC | -0.011
118 | GAACCCCC | -0.167
119 | GGGAGGAC | 0.128
120 | CGGACACA | 0.286
121 | ACCGAAGT | 0.0472
122 | ATGCCTCC | -0.00197
123 | CCCTCAGA | -0.237
124 | AGTGAGCC | -0.0676
125 | GATCAAAC | -0.0699

Row | Sequence | PBM E-score
126 | AGTTGACG | -0.0734
127 | GAAGCCTA | 0.0119
128 | TCAGCCCA | 0.0316
129 | CATCACTC | -0.0507
130 | GCTTGGCC | -0.00234
131 | CTAGAATC | -0.15
132 | CTGTCACC | -0.103
133 | CTTTAAAG | -0.362
134 | CATGTCAG | -0.16
135 | CCCGTACG | 0.066
136 | ACGACTGG | -0.101
137 | CCTGCCTC | -0.121
138 | CCTTCAAC | -0.206
139 | CGGGGCAA | 0.204
140 | ACACGAAC | 0.109
141 | CGTTTCAC | 0.0269
142 | CACTAACA | -0.106
143 | ATCGTCAT | -0.073
144 | CGATAACA | 0.0907
145 | CAACACTG | -0.19
146 | CGCTACCC | -0.0503
147 | AAACTGCC | 0.00197
148 | CGTTCAGA | -0.135
149 | AGTACAAA | -0.0913
150 | CGGCGATA | 0.258

Row | Sequence | PBM E-score
151 | AACACGAG | -0.0542
152 | CCGCAGAG | -0.0664
153 | ACTGATAT | 0.0306
154 | AGCTAACC | -0.0479
155 | ACACAAAT | 0.058
156 | AAGCATGG | -0.0696
157 | ATGATGCA | -0.103
158 | ATTGCATA | 0.137
159 | AAGTATCA | 0.0363
160 | ATCGTTGG | -0.14
161 | AAGATTAC | -0.0126
162 | ACCTGAGG | -0.127
163 | GCGATAGA | -0.171
164 | GATCGGAC | 0.362
165 | ATATGCAC | 0.0159
166 | AGGTGGTC | -0.145
167 | GTTACCCA | -0.159
168 | ACATGTAG | 0.0291
169 | GCCTGGAA | -0.0452
170 | ATATAGCA | -0.144
171 | ACACGCGG | 0.134
172 | GCTACACC | -0.23
173 | CAAACCAA | 0.0107
174 | AGAATCGC | 0.0563
175 | CACTATGC | -0.0327

Row | Sequence | PBM E-score
176 | GTCGTACA | -0.091
177 | ATGCGGAA | 0.416
178 | CCACACGG | 0.0795
179 | AACACTAC | -0.133
180 | CGGCACAG | 0.218
181 | GAGATTTA | -0.00055
182 | GGATTGAC | -0.0159
183 | CCGCGAAA | 0.196
184 | AGCCGTGC | -0.00554
185 | ACTTAATA | -0.0398
186 | CAAAGCTA | -0.0816
187 | ACGCCAAA | -0.178
188 | CCCGTCAC | 0.123
189 | ATCGATGC | 0.0656
190 | AGAAGCCA | -0.139
191 | ATGAGGAG | -0.166
192 | GTCCAGGA | -0.21
193 | GCATTTCC | 0.189
194 | TTCACCAA | -0.145
195 | AGTATCAC | -0.0714
196 | GATCTTCC | 0.191
197 | AATCACGG | 0.271
198 | GACGATAA | -0.102
199 | CCGACTAG | 0.0372
200 | AAATTTAT | 0.0509

Row | Sequence | PBM E-score
201 | CTTAATGA | -0.195
202 | AGCGGCAT | 0.196
203 | ATGGTTAC | -0.15
204 | CGCCACCA | -0.173
205 | GCGTAACC | -0.174
206 | CATATAGC | 0.0552
207 | TATAACGA | 0.0373
208 | ATCGGCTA | 0.0766
209 | CCCACCTA | -0.174
210 | ACGAGTGC | -0.081
211 | ACTAAACC | -0.0497
212 | CCGTTGAA | 0.0461
213 | CAGAATCC | 0.0321
214 | GAGTGACC | -0.174
215 | GGCAATTA | -0.0251
216 | AAGGGCAG | -0.043
217 | ACAGTAAA | -0.0539
218 | GGATTGGA | 0.056
219 | CGACTTAC | 0.0129
